# Results reported in PubChem BioAssay AID1508624 (National Center for Advancing Translational Sciences (NCATS), 2021).
# Hit rate of the full screen: of about 48,000 compounds, about 120 (0.25%) were called active. Another 4% or so got no clear call; they are omitted. Calls come from the whole dose curve; as a rule, active = well fitted activation curve with a large enough effect; inconclusive = small, poorly fitted or top-dose-only effect, or another doubt; inactive = no such curve, though single readings can be large or run the other way. This is one part of the list.
# Assay: Primary qHTS for Identification of Small Molecule Activators of Huntingtin-Antisense Promoter Activity; note: nearly all actives have a fitted effect of over 55% in size
# Conditions: HEK293 HTT-AS promoter firefly luciferase reporter, 24 h; series mostly up to 57.5 µM; activity change, positive = activation: at the top concentration
# Outline: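 Firefly luciferase readout (Dual-Glo, 10 min RT) after 24 h, 37 °C compound exposure (final up to 57.5 uM) of HEK293 reporter cells cultured 24 h beforehand; PTC124 at 50 uM final as control inhibitor; activity scaled vehicle 0%, zero RLU -100%.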
row,SMILES,"activity change, positive = activation"
1,O=C(c1ccc(F)c(F)c1Nc1ccc(I)cc1F)N1CC(O)([C@H]2CCCCN2)C1,inactive: -34.7%
2,O=C(CN1C(=O)C(c2ccc(F)cc2)=NC12CCCCCC2)Nc1ccc(F)c(Cl)c1,inactive: -47.4%
3,Cc1ccc2c(=O)cc(C(=O)Nc3c(C)n(C)n(-c4ccccc4)c3=O)oc2c1C,"inactive: 6.51% [at 11.5 µM, percent change from vehicle, -100% = no light]"
4,CCC(=O)NC1CC(=O)N(c2ccc3c(c2)OCCO3)C1 (stereo not given),inactive: -0.457%
5,COc1ccccc1NC(=O)Cn1c(=O)n(Cc2ccco2)c(=O)c2oc3ccccc3c21,inactive: -14.9%
6,COC(=O)C(C)Sc1nnc2cc(C)c3cc(C)cc(C)c3n12 (stereo not given),inactive: -15.1%
7,COc1cc(-c2cc(OC)c3c(C)oc(C)c3c(=O)c2)ccc1OC(=O)c1ccccc1C,inactive: -32.3%
8,Cc1cc(C)c2c(-n3cccc3)c(C(=O)NCCc3ccc(Cl)cc3)sc2n1,inactive: -16.5%
9,CN(C(=O)c1nc(-c2cccc(F)c2)n2c1CCCCC2)c1ccccc1F,inactive: -7.54%
10,Cc1ccc(-n2c3c(c(=O)[nH]c2=O)C(NC(=O)c2ccccc2F)(C(F)(F)F)C(=O)N3)cc1C (stereo not given),inactive: -11.3%
11,CCN(CCCNC(=O)c1cc2c(=O)n(CC)c3ccccc3c2s1)c1cccc(C)c1,inactive: -9.35%
12,Cc1ccccc1-c1nc(CS(=O)(=O)CC(=O)NC(C)c2ccccc2)c(C)o1 (stereo not given),inactive: -25.7%
13,CCc1ccc(N2CCn3c2nc2c3c(=O)n(Cc3ccc(F)cc3)c(=O)n2C)cc1,inactive: -6.17%
14,COc1ccc2c(c1)c(=O)c(S(=O)(=O)c1ccc(C)c(C)c1)cn2CC(=O)Nc1ccccc1,inactive: -17.2%
15,CCc1ccc(NC(=O)c2cc3c(=O)n(Cc4cccs4)ccc3nc2C)cc1,inactive: -13.3%
16,COc1ccc(Cl)cc1NC(=O)CN(c1cc(C)cc(C)c1)S(=O)(=O)c1c(C)n[nH]c1C,inactive: -37.9%
17,COc1cc(-c2noc(C3CC(=O)N(c4ccc5c(c4)OCCO5)C3)n2)cc(OC)c1OC (stereo not given),inactive: -7.33%
18,O=C(Nc1cc(F)ccc1F)C1COc2ccccc2C1 (stereo not given),inactive: 18.6%
19,CCN(CC)CC(=O)Nc1c(C)cccc1C,inactive: -9.78%
20,Cc1ccc(CNc2ccc(-c3nc(-c4ccco4)no3)cc2[N+](=O)[O-])cc1,inactive: -8.73%

row,SMILES,"activity change, positive = activation"
1,Cc1ccc(-c2cc(C(=O)O)n(Cc3ccccc3)n2)cc1,inactive: 25.2%
2,Cc1ccc(S(=O)(=O)c2nc(-c3ccccc3)oc2N2CCN(c3ccccc3)CC2)cc1,inactive: -12.9%
3,COc1ccc(C(=O)Nc2ccc(-n3nncc3-c3ccc(OC)c(OC)c3)cc2)cc1,inactive: -15.3%
4,CCOc1ccc(-c2nc3c(C#N)c[nH]n3c2NC2CCCC2)cc1,inactive: 32.8%
5,Cc1ccc(C2=Nc3ccccc3NC(c3ccncc3)=N2)cc1,inactive: -20.5%
6,CNS(=O)(=O)c1cn(CC(=O)Nc2ccc(C)cc2C)cc1S(=O)(=O)NC,inactive: -8.51%
7,COc1ccc(NS(=O)(=O)c2ccc(NC(=O)N3CCCC3)cc2)cc1,inactive: -22.1%
8,Cc1ccc(-c2cn3c(n2)sc2cc(C(=O)NCCCc4ccccc4)ccc23)cc1,inactive: 29.1%
9,COc1ccc(CCNC(=O)CCc2c(C)nc3c(c(C)nn3-c3ccc(C)cc3)c2C)c(OC)c1,inactive: -15.8%
10,CCc1ccccc1NC(=O)C1CCCN(S(=O)(=O)c2cccc3nsnc23)C1 (stereo not given),inactive: -7.41%
11,COc1ccc(Nc2cc(C)nc(-n3nc(C)cc3C)n2)cc1Cl,inactive: -74.7%
12,Cc1ccc(Cc2nc3ccccc3nc2SCC(=O)Nc2cccc(C(F)(F)F)c2)cc1,inactive: -28.3%
13,COC(=O)c1cnn(-c2ccc(C(=O)Nc3ccc(C(C)=O)cc3)cc2)c1N,inactive: -7.37%
14,O=C(CN1CCSc2ccccc21)N1CCN(c2cccc(Cl)c2)CC1,inactive: -23.5%
15,Cc1ccc(-n2ncc3c(NC4CCCCC4)ncnc32)cc1,inactive: -56.6%
16,CC(C)(C)c1ccc(S(=O)(=O)NCc2nc3cccnc3n2Cc2ccccc2Cl)cc1,inactive: -32.5%
17,Cc1nn(CC(=O)NCCc2ccccc2Cl)c(=O)c2nn(-c3ccccc3)c(C)c12,inactive: -15.4%
18,O=S(=O)(c1ccccc1)N1CCC(c2ccncc2)CC1,inactive: -42.7%
19,CCOc1ccc(CNC(=O)Cn2nc(C)c3nn(-c4ccc(Cl)cc4)c(C)c3c2=O)cc1OC,inactive: -18.3%
20,O=C1COc2cc(S(=O)(=O)CCC(=O)N3CCN(c4cccc(Cl)c4)CC3)c(Cl)cc2N1,inactive: -41.8%

row,SMILES,"activity change, positive = activation"
1,CCC(C)NC(=O)c1sc2nc(C)c(C(=O)Nc3ccc(C)cc3C)c(-c3ccc(Cl)cc3)c2c1N (stereo not given),inactive: -11.3%
2,CC(=O)OCC(=O)[C@@]12OC(C)(C)O[C@@H]1C[C@H]1[C@@H]3C[C@H](F)C4=CC(=O)C=C[C@]4(C)[C@@]3(F)[C@@H](O)C[C@@]12C,inactive: -4.21%
3,COc1ccc(CNCc2c(C(=O)O)c(C)n(Cc3ccc(Cl)cc3)c2C)c(OC)c1,inactive: -14.6%
4,c1ccc2c(CC3=NCCN3)cccc2c1,inactive: 0.373%
5,CC(=O)c1cc(-c2ccc(F)cc2)n(CCC(=O)Nc2nc3c(C)cccc3s2)c1C,inactive: -15.2%
6,Cc1ccc2c(c1)c1c(c(=O)n(-c3ccccc3C)c(=O)n1CC(=O)NCCC1=CCCCC1)n2C,inactive: -15.2%
7,Cn1cnc(S(=O)(=O)N2CCC(C(=O)NCc3ccc(Cl)cc3)CC2)c1,inactive: -6.59%
8,COc1ccc(CNC(=O)c2cc3c(=O)n(C)c4ccccc4c3n2C)cc1,inactive: -5.35%
9,COCCNC(=O)c1nn(-c2ccc(Cl)cc2)nc1CO,inactive: 7.96%
10,O=C(CSc1ccccc1)NCc1ccc2c(c1)CCN2C(=O)c1ccc(F)cc1,inactive: 6.15%
11,O=C(Cc1ccccc1)N(Cc1cccnc1)c1nc2ccc(F)cc2s1,inactive: -15.6%
12,CCOc1cc(C2CC(=O)Nc3nc(SCc4ccccc4)[nH]c(=O)c32)ccc1O (stereo not given),inactive: -16.6%
13,CCc1ccc2oc(-c3ccc(NC(=O)c4cc(OC)c(OC)c(OC)c4)cc3)nc2c1,inactive: 2.06%
14,CCOC(=O)c1ccc(N2C(=O)c3[nH]nc(-c4ccc(OCC)cc4)c3C2c2ccc(OC)cc2OC)cc1 (stereo not given),inactive: -22.4%
15,Cc1ccccc1-c1nnc(C2CCN(S(=O)(=O)c3ccc(Cl)cc3)CC2)o1,inactive: -53.8%
16,CCc1ccc(CNC(=O)CCCN2C(=O)c3cccnc3Oc3ccc(Cl)cc32)cc1,inactive: -23.3%
17,O=C(COc1ccccc1)Nc1nnc(S(=O)(=O)N2CCCCCC2)s1,inactive: -20.5%
18,CC(C)c1ccccc1NC(=O)CN1C(=O)c2cccc3cccc1c23,inactive: -21.7%
19,CCC(=O)Nc1ccc2nc(SCc3ccc(C)cc3)sc2c1,inactive: 2.56%
20,Cc1nc(N2CCCC2)c2c(C(=O)N3CCN(c4cccc(C)c4C)CC3)c(C)oc2n1,inactive: -37.1%
